# Reference: the supplement of paper PMC12217912
# The list shows a part of the results. The full chains were built here from the parent and the listed change. Values near 0.05 are background.
# B1: TEV protease; numbered along this chain (parent)
# chain: MGESLFKGPRDYNPISSSICHLTNESDGHTTSLYGIGFGPFIITNKHLFRRNNGTLVVQSLHGVFKVKDTTTLQQHLVDGRDMIIIRMPKDFPPFPQKLKFREPQREERICLVTTNFQTKSMSSMVSDTSCTFPSGDGIFWKHWIQTKDGQCGSPLVSTRDGFIVGIHSASNFTNTNNYFTSVPKNFMELLTNQEAQQWVSGWRLNADSVLWGGHKVFMVKPEEPFQPVKEATQL
# Variants of: B1
# Assay: raw area under fraction-flipped curve 0-4 h after induction (AUC4h, not background-subtracted), DNA-recorder readout of cleavage of the substrate (dimensionless); higher = more cleavage of the substrate by the protease variant
# Details: temperature: 34 °C; time window: 0-4 h after rhamnose induction
# Description: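 In vivo DNA recorder in E. coli TOP10(DE3) ΔrhaA at 34 °C. Each TEVp single-site mutant (parent TEVp 0) is paired with a single-site variant of the 7-mer TEVs (canonical ENLYFQ|S). The substrate sits between flexible linkers in a Bxb1-sfGFP-TEVs-SsrA fusion, so cleavage stabilises Bxb1 and speeds flipping of a recombination array, read by NGS. The value is the raw area under the fraction-flipped curve over 0-4 h after rhamnose induction (AUC4h), with ≥20 reads per time point. It is not background-subtracted; inactive controls average about 0.047.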
# 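Note: Bxb1 expression induced with 0.2% (w/v) L-rhamnose at OD600 near 0.5, cultures sampled hourly, flipped fraction per protease–substrate barcode pair counted by paired-end Illumina sequencing.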
Variant,area with substrate ENLYCQS,area with substrate ENLYDQS,area with substrate ENLYEQS,area with substrate ENLYGQS,area with substrate ENLYHQS,area with substrate ENLYIQS,area with substrate ENLYKQS,area with substrate ENLYNQS,area with substrate ENLYRQS,area with substrate ENLYTQS,area with substrate ENLYVQS,area with substrate ENLYQQS,area with substrate ENLYSQS,area with substrate ENLYMQS,area with substrate ENLYPQS,area with substrate ENLYWQS,area with substrate ENLYYQS,area with substrate ENLYLQS
R106N,0.0928,0.0991,0.064,0.0624,0.0661,0.0943,0.0525,0.0554,0.067,0.072,0.111,–,–,–,–,–,–,–
R109K,0.0762,0.0602,–,0.0699,0.0456,0.101,0.0809,0.0032,–,–,0.153,0.0867,0.0826,–,–,–,–,–
I110F,0.0587,0.0508,0.0439,0.0425,0.0516,–,0.0267,0.0641,0.0475,–,0.054,0.054,0.0578,0.0588,0.052,0.0521,0.0411,–
V113W,0.0934,0.0626,–,–,0.0678,0.124,0.0661,0.075,–,–,–,0.0598,–,–,0.0737,0.0798,0.0518,–
S124G,0.0874,0.0555,0.057,0.0922,0.0748,–,–,0.0607,0.0642,0.0807,–,–,0.0762,0.0819,0.0395,–,–,–
M125Y,0.0524,0.0517,0.0643,0.0677,0.042,–,–,0.0578,–,–,0.106,0.0349,0.0619,0.0789,–,–,–,–
T129D,0.0772,–,0.0473,–,–,0.131,–,0.0617,–,–,–,0.0601,–,0.0792,–,–,–,–
T132K,0.0563,–,0.0528,–,0.0579,–,0.0584,–,–,–,–,0.0488,–,–,–,–,–,–
T132N,0.0673,0.0596,0.0646,–,0.0541,0.101,0.0605,–,0.0538,0.0582,–,–,–,0.0591,0.071,0.0888,–,–
P134R,0.0825,0.0643,0.0517,0.0644,0.0615,0.0687,0.0657,–,0.0604,–,0.111,–,–,0.0742,0.0727,–,–,–
G138W,0.0995,0.0515,–,0.0294,0.0725,–,0.0677,–,0.0684,–,0.106,–,–,–,0.0599,–,–,–
I139T,0.0924,0.0223,–,0.0411,–,–,–,–,0.0738,0.106,–,–,–,–,–,–,–,–
D149P,0.0828,0.0495,0.0557,0.081,–,–,0.0659,–,–,–,0.0895,0.0623,0.0594,–,0.0702,–,0.0291,–
G150A,0.0572,–,0.0678,–,0.0548,0.087,–,–,–,–,–,–,–,–,–,–,–,–
G150Y,0.0555,–,0.0621,–,0.0491,0.0547,0.0237,0.0544,0.0553,–,0.0593,–,0.0541,0.0447,0.0608,–,–,0.0697
G153T,0.03,–,–,0.0412,0.0621,–,0.0353,0.0513,–,0.0511,–,0.0473,0.0536,0.056,–,–,–,0.0458
L156Y,0.0522,0.0698,0.0456,0.0497,0.0536,–,0.0688,0.0511,0.0663,0.0584,0.0665,0.0535,–,–,–,–,–,0.0472
T159V,0.103,0.0513,–,0.0565,0.0573,–,–,0.0602,–,0.0616,–,0.0536,0.0982,–,–,–,–,–

Variant,area with substrate ENLYCQS,area with substrate ENLYDQS,area with substrate ENLYEQS,area with substrate ENLYGQS,area with substrate ENLYHQS,area with substrate ENLYIQS,area with substrate ENLYKQS,area with substrate ENLYNQS,area with substrate ENLYRQS,area with substrate ENLYTQS,area with substrate ENLYVQS,area with substrate ENLYQQS,area with substrate ENLYSQS,area with substrate ENLYMQS,area with substrate ENLYPQS,area with substrate ENLYWQS,area with substrate ENLYYQS,area with substrate ENLYLQS
F163D,0.072,–,0.0663,0.0563,–,–,–,–,–,–,–,–,–,–,0.0742,–,–,–
F163Y,0.0592,0.0515,–,0.0656,0.0699,0.135,–,–,0.0706,–,0.127,0.0648,0.0589,0.0746,0.0907,–,0.0804,–
A170S,0.0811,0.0436,0.0494,–,0.044,–,–,0.0501,0.0606,–,0.0912,–,0.0647,0.0527,0.0419,0.0471,–,–
N172P,0.0719,–,0.0643,–,–,–,–,0.0577,0.0537,–,–,–,0.0649,–,–,0.054,0.0922,–
N178S,0.0612,0.0582,–,0.0851,0.0565,0.126,0.0619,0.0564,–,–,0.099,0.059,–,0.0783,–,–,–,–
K185L,0.0901,0.0539,0.0608,0.0662,–,–,–,0.0945,–,–,–,0.056,0.0851,–,–,–,0.0689,–
L190D,0.0828,0.0558,0.0839,0.0616,0.0689,–,0.0335,0.0918,–,0.0418,0.0701,–,0.0833,0.0903,0.0704,–,0.0429,0.0641
L190T,0.0926,–,–,0.077,–,–,–,0.0848,0.0576,–,0.105,–,–,–,0.0607,–,0.0445,–
L191Q,0.0543,0.0698,0.0489,–,0.0629,–,0.0586,0.0489,–,0.0808,0.0646,0.0553,–,0.0605,0.0355,–,–,0.0848
Q194A,0.0842,–,–,–,0.0693,–,0.0568,0.0501,–,–,0.0817,0.06,–,–,0.074,–,–,0.0844
E195T,0.0545,–,–,0.0554,0.0758,0.111,0.123,–,–,–,–,0.0729,–,–,0.0705,–,–,–
A196V,0.111,0.047,–,–,0.0619,0.111,–,–,0.0471,–,–,0.0634,–,–,0.0904,0.084,–,–
W203S,0.0719,0.0607,0.0727,–,0.0617,0.0543,0.0786,–,0.0617,–,0.0679,–,–,–,–,0.0596,–,–
R204D,0.0803,0.0703,0.0708,0.053,0.0663,0.105,0.0622,0.0743,0.0599,0.0689,0.116,0.0623,0.0852,0.0818,–,0.0889,0.0788,–
N206C,0.049,–,0.0574,0.069,0.0739,0.121,0.0632,0.0624,–,0.0765,0.188,0.0663,–,0.0767,0.0646,0.0788,0.0814,–
L211N,0.106,0.0567,0.0735,–,0.0669,–,0.056,0.064,–,0.107,–,–,0.0965,0.119,0.0816,0.1,–,–
W212A,0.064,0.0432,–,0.0933,–,–,–,–,–,–,0.0768,–,–,–,–,–,0.0889,–
G213C,0.0642,–,0.0593,0.0629,0.0711,0.0505,0.0819,–,–,–,–,–,0.0546,–,–,–,–,–
